Structures can show the parent of a compound that is named as a salt.

The experiment concerns MLKL phosphorylation, HT29-L23 human colorectal adenocarcinoma cells. The experiment is described as follows: cells. Conditions: read-out: pMLKL HCS Cell Assay (IC50, uM).
For orientation: IC50 means the concentration at which inhibition is half-maximal. Consider `Cc1ncc(-c2cc(C(F)(F)F)c3c(N)ncnn23)cc1C(=O)NCCC(O)c1ccccc1` (stereo not drawn) [Example 167, 5-[4-amino-5-(trifluoromethyl)pyrrolo[2,1-f][1,2,4]triazin-7-yl]-N-(3-hydroxy-3-phenylpropyl)-2-methylpyridine-3-carboxamide], for which the 50% inhibitory concentration (IC50) stood at 0.0093 µM.
The same measure for `COc1ncc(-c2cc(CN3CCC3)c3c(N)ncnn23)cc1C(=O)N[C@@H]1CN(C(=O)OCC(F)(F)F)C[C@@H]1F` [Example 1555, 2,2,2-trifluoroethyl (3R,4S)-3-(5-{4-amino-5-[(azetidin-1-yl)methyl]pyrrolo[2,1-f][1,2,4]triazin-7-yl}-2-methoxypyridine-3-amido)-4-fluoropyrrolidine-1-carboxylate]: 0.0015 µM.
Take `COc1ncc(-c2cc(C(F)(F)F)c3c(N)ncnn23)cc1C(=O)NCCC(O)c1ccccc1` (stereo not drawn) [Example 117, 5-[4-amino-5-(trifluoromethyl)pyrrolo[2,1-f][1,2,4]triazin-7-yl]-N-(3-hydroxy-3-phenylpropyl)-2-methoxypyridine-3-carboxamide]: the half-inhibitory concentration (IC50) is 0.079 µM.
Take `COc1ncc(-c2cc(C(F)(F)F)c3c(N)ncnn23)cc1C(=O)NCCC(C)c1ccccc1` (stereo not drawn) [Example 109, 5-[4-amino-5-(trifluoromethyl)pyrrolo[2,1-f][1,2,4]triazin-7-yl]-2-methoxy-N-(3-phenylbutyl)pyridine-3-carboxamide]: the concentration for half-maximal inhibition (IC50) was 0.0097 µM.
As for `COc1cc(F)c(-c2cc(CN3CCC(F)(F)CC3)c3c(N)ncnn23)cc1C(=O)N[C@@H]1CN(C(=O)C2CC2(F)F)C[C@@H]1F` (stereo partly drawn) [Example 1634, 5-{4-amino-5-[(4,4-difluoropiperidin-1-yl)methyl]pyrrolo[2,1-f][1,2,4]triazin-7-yl}-N-[(3R,4S)-1-(2,2-difluorocyclopropanecarbonyl)-4-fluoropyrrolidin-3-yl]-4-fluoro-2-methoxybenzamide], the IC50 amounted to 0.0033 µM.
To `Cc1ccc(-c2cc(C(F)(F)F)c3c(N)ncnn23)cc1C(=O)N[C@@H]1CN(C(=O)CC2CCCC2)C[C@@H]1F` [Example 1044, 5-[4-amino-5-(trifluoromethyl)pyrrolo[2,1-f][1,2,4]triazin-7-yl]-N-[(3R,4S)-1-(2-cyclopentylacetyl)-4-fluoropyrrolidin-3-yl]-2-methylbenzamide] belongs 0.0014 µM; to `COc1ncc(-c2cc(C)c3c(N)ncnn23)cc1C(=O)Nc1cnn(Cc2ccccc2)c1` [Example 42, 5-{4-amino-5-methylpyrrolo[2,1-f][1,2,4]triazin-7-yl}-N-(1-benzyl-1H-pyrazol-4-yl)-2-methoxypyridine-3-carboxamide], 0.0087 µM.
Turning to `Cc1cc(F)c(-c2cc(C(F)(F)F)c3c(N)ncnn23)cc1C(=O)N[C@@H]1CN(C(=O)c2cnccc2Cl)C[C@@H]1F` [Example 818, 5-[4-amino-5-(trifluoromethyl)pyrrolo[2,1-f][1,2,4]triazin-7-yl]-N-[(3R,4S)-1-(4-chloropyridine-3-carbonyl)-4-fluoropyrrolidin-3-yl]-4-fluoro-2-methylbenzamide], the IC50 amounted to 0.0087 µM.
Turning to `COc1ncc(-c2cc(F)c3c(N)ncnn23)cc1C(=O)N[C@@H]1CN(C(=O)C2CC(F)(F)C2)C[C@@H]1F` [Example 66, 5-{4-amino-5-fluoropyrrolo[2,1-f][1,2,4]triazin-7-yl}-N-[(3R,4S)-1-(3,3-difluorocyclobutanecarbonyl)-4-fluoropyrrolidin-3-yl]-2-methoxypyridine-3-carboxamide], the IC50 is 0.183 µM.
Take `COc1ncc(-c2cc(C(F)(F)F)c3c(N)ncnn23)cc1C(=O)N[C@@H]1CN(C(=O)C2(O)CCC2)C[C@@H]1F` [Example 316, 5-[4-amino-5-(trifluoromethyl)pyrrolo[2,1-f][1,2,4]triazin-7-yl]-N-[(3R,4S)-4-fluoro-1-(1-hydroxycyclobutanecarbonyl)pyrrolidin-3-yl]-2-methoxy-pyridine-3-carboxamide, TFA]: the IC50 turned out to be 0.045 µM.
As to `[2H]C([2H])([2H])Oc1nc(C)c(-c2cc(C(F)(F)F)c3c(N)ncnn23)cc1C(=O)N[C@@H]1CN(C(=O)[C@@](C)(O)C(F)(F)F)C[C@@H]1F` [Example 517, 5-[4-amino-5-(trifluoromethyl)pyrrolo[2,1-f][1,2,4]triazin-7-yl]-N-[(3R,4S)-4-fluoro-1-[(2R)-3,3,3-trifluoro-2-hydroxy-2-methylpropanoyl]pyrrolidin-3-yl]-2-(deutero)methoxy-6-methylpyridine-3-carboxamide], the concentration for half-maximal inhibition (IC50) is 0.011 µM.
In the case of `COc1ncc(-c2cc(CN3CC(F)(F)C3)c3c(N)ncnn23)cc1C(=O)N[C@@H]1CN(C(=O)C2CCC(F)(F)C2)C[C@@H]1F` (stereo partly drawn) [Example 1620, 5-{4-amino-5-[(3,3-difluoroazetidin-1-yl)methyl]pyrrolo[2,1-f][1,2,4]triazin-7-yl}-N-[(3R,4S)-1-(3,3-difluorocyclopentanecarbonyl)-4-fluoropyrrolidin-3-yl]-2-methoxypyridine-3-carboxamide], the IC50 amounted to 0.00096 µM.
On to `COc1ncc(-c2cc(CN3CCC(C(F)(F)F)CC3)c3c(N)ncnn23)cc1C(=O)N[C@@H]1CN(C(=O)C(C)(C)F)C[C@@H]1F` [Example 1628, 5-(4-amino-5-{[4-(trifluoromethyl)piperidin-1-yl]methyl}pyrrolo[2,1-f][1,2,4]triazin-7-yl)-N-[(3R,4S)-4-fluoro-1-(2-fluoro-2-methylpropanoyl)pyrrolidin-3-yl]-2-methoxypyridine-3-carboxamide], for which the concentration for half-maximal inhibition (IC50) was found to be 0.061 µM.
As to `COc1ncc(-c2cc(C(F)(F)F)c3c(N)ncnn23)cc1C(=O)NCCN1CCCC(c2ccccc2)C1` (stereo not drawn) [Example 1722, 5-(4-amino-5-(trifluoromethyl)pyrrolo[2,1-f][1,2,4]triazin-7-yl)-2-methoxy-N-(2-(3-phenylpiperidin-1-yl)ethyl)nicotinamide], the IC50 stood at 0.295 µM.
Take `COc1ncc(-c2cc(CN3CCC(F)(F)CC3)c3c(N)ncnn23)cc1C(=O)NC1CN(C(=O)[C@@](C)(O)C(F)(F)F)CCC1F` (stereo partly drawn) [Example 1663, 5-{4-amino-5-[(4,4-difluoropiperidin-1-yl)methyl]pyrrolo[2,1-f][1,2,4]triazin-7-yl}-N-{4-fluoro-1-[(2R)-3,3,3-trifluoro-2-hydroxy-2-methylpropanoyl]piperidin-3-yl}-2-methoxypyridine-3-carboxamide]: the half-maximal inhibitory concentration (IC50) came out at 0.0063 µM.
Regarding `Nc1ncnn2c(-c3cc(F)cc(C(=O)N[C@@H]4CN(C(=O)C5CCC5)C[C@@H]4F)c3)cc(C(F)(F)F)c12` [Example 605, 3-[4-amino-5-(trifluoromethyl)pyrrolo[2,1-f][1,2,4]triazin-7-yl]-N-[(3R,4S)-1-cyclobutanecarbonyl-4-fluoropyrrolidin-3-yl]-5-fluorobenzamide], the IC50 was found to be 0.0088 µM.
As to `COc1ncc(-c2cc(C(F)(F)F)c3c(N)ncnn23)cc1C(=O)N[C@H]1CCN(Cc2ccccc2)C1` [Example 119, 5-[4-amino-5-(trifluoromethyl)pyrrolo[2,1-f][1,2,4]triazin-7-yl]-N-[(3S)-1-benzylpyrrolidin-3-yl]-2-methoxypyridine-3-carboxamide], the half-inhibitory concentration (IC50) is 0.042 µM.
`CC(C(=O)N1C[C@H](F)[C@H](NC(=O)c2cc(-c3cc(C(F)(F)F)c4c(N)ncnn34)cc(F)c2CF)C1)C(F)(F)F` (stereo partly drawn) [Example 627, 5-[4-amino-5-(trifluoromethyl)pyrrolo[2,1-f][1,2,4]triazin-7-yl]-3-fluoro-N-[(3R,4S)-4-fluoro-1-(3,3,3-trifluoro-2-methylpropanoyl)pyrrolidin-3-yl]-2-(fluoromethyl)benzamide]: the concentration for half-maximal inhibition (IC50) was 0.0036 µM.

The values are drawn from patent publication US11618753B2 (priority 2018, dated 2023).
